Test results published in PubChem BioAssay AID1347417 (National Center for Advancing Translational Sciences (NCATS), 2020).
About 5,300 (4.4%) of roughly 120,000 compounds were called active. The shares of active, inactive and inconclusive entries below differ from those in the screen. Calls follow the shape of the dose curve; as a rule, active = well fitted inhibition curve with a large enough effect; inconclusive = small, poorly fitted or top-dose-only effect; inactive = no such curve, though single readings can be large or run the other way. Where the call is inconclusive, the potency comes from a doubtful curve fit.

Assay: qHTS Primary assay for Inhibitors of Plasmodium falciparum Dd2 growth in vitro; also: nearly all actives have a fitted effect of over 65% in size;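 as to activity, negative = inhibition: plate controls were DMSO vehicle for no effect and reference drug for full effect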
Conditions: P. falciparum Dd2 growth, SYBR Green, 72 h; activity, negative = inhibition: at 28.9 µM (top of the series) unless noted; series mostly up to 28.9 µM
Summary of the method: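 Readout: SYBR Green fluorescence, 485 nm excitation, 535 nm emission, after ~16 h lysis at 37C. Before that, Dd2-infected red cells (2.5% hematocrit) grew 72 h with compound, 29 uM top final concentration.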
Potency is read from the fitted curve at half-maximal effect; tags tell the direction and shape of the fitted curve.

| SMILES | outcome | activity, negative = inhibition | Potency |
| --- | --- | --- | --- |
| Cc1ccc(-c2nccn3cc(C(=O)N4CCN(c5ncccn5)CC4)nc23)cc1 | inactive | – | – |
| CCc1ccc(-n2nc3ccc(NC(=O)c4cc(Cl)c(OC)c(Cl)c4)cc3n2)cc1 | – | inactive: 7.43% | – |
| Cc1ccc(NC(=O)CN(CCc2ccccc2)S(=O)(=O)c2ccccc2)c(C)c1 | – | – | inconclusive: 10 µM [inhibitor, single point] |
| CN(C(=O)CSc1nc2ccc(NC(=O)c3ccccc3F)cc2s1)c1ccccc1 | – | inactive: -23.6% | – |
| CCn1ncc(C(=O)N2CCC3(CC2)CN(Cc2ccccc2)CC3CO)c1C (centres undefined) | – | – | inconclusive: 1.78 µM [inhibitor, single point] |
| C=CCOC(=O)C1=C(C)N=C2SC=C(CC(=O)NC3CC3)N2C1c1cccc(OC)c1OC (centres undefined) | – | – | inconclusive: 3.98 µM [inhibitor, single point] |
| COc1ccccc1C1=NS(=O)(=O)N(C)C(C(=O)Nc2cc(OC)c(OC)c(OC)c2)=C1 | – | – | inconclusive: 10 µM [inhibitor, single point] |
| CNC(=O)N1CCC(C2CCN(S(=O)(=O)c3cccc(C#N)c3)C2)CC1 (centres undefined) | – | – | inconclusive: 0.794 µM [inhibitor, full curve, poor fit] |
| O=C(NCCc1ccccn1)c1nc(-c2ccccc2)cc2[nH]ccc12 | – | – | inconclusive: 31.6 µM [inhibitor, single point] |
| Cc1nc(C)c(C(=O)Nc2nn(Cc3ccccc3)c3cccc(OC(C)C)c23)o1 | – | – | inconclusive: 12.6 µM [inhibitor, partial curve, poor fit] |
| CC(C)c1ccc(NC(=O)c2cn(C3CCCCC3)c(=O)c3c2c2ccccc2n3C)cc1 | – | – | inconclusive: 12.6 µM [inhibitor, single point] |
| O=C(Cc1c[nH]c2ccccc12)NCC12CCCC=C1NC(=O)CC2 (centres undefined) | inactive | – | – |
| Cc1ccc(NC(=O)Cn2c(=O)n(CCCC(=O)NCc3ccc4c(c3)OCO4)c(=O)c3ccccc32)cc1 | – | – | inconclusive: 17.8 µM [inhibitor, single point] |
| CC(C)(C)c1cc(CC2(NCc3ccc(C#N)cc3)COC2)no1 | – | – | inconclusive: 7.94 µM [inhibitor, partial curve, poor fit] |
| O=C(NC1CCCCC1)c1ccc(CSc2nc3ccncc3n2Cc2ccccc2)cc1 | – | – | inconclusive: 11.2 µM [inhibitor, single point] |
| O=C(NCCc1ccccc1)c1ccc(Cn2c(=O)c3cccn3c3cccnc32)cc1 | – | – | inconclusive: 17.8 µM [inhibitor, single point] |
| O=C(Nc1cccc(Cl)c1)N[C@H]1C[C@H]2C(=O)NC[C@@H](CCC(=O)N3CCC(O)CC3)N2C1 | – | inactive: -7.98% | – |
| O=C(Nc1cnc(-c2ccccc2)nc1)c1ccccc1 | – | – | inconclusive: 3.98 µM [inhibitor, single point] |
| COCCNC(=O)[C@H]1C[C@H](Oc2cccnc2)CN1C(=O)Cc1cccc(OC)c1 | – | inactive: 0.838% | – |
| Cc1cccc(N2CCN(C(=O)CCCn3c(=O)[nH]c4ccsc4c3=O)CC2)c1C | – | – | inconclusive: 11.2 µM [inhibitor, single point] |
| Cc1noc(C)c1-c1cc(-c2ccccc2Oc2ccccc2)cn2cncc12 | – | – | active: 5.62 µM |
| O=C1CC(c2nc3ccccc3n2CCC2CCCCC2)CN1c1ccccc1Cl (centres undefined) | – | – | inconclusive: 5.01 µM [inhibitor, partial curve, poor fit] |

| SMILES | outcome | activity, negative = inhibition | Potency |
| --- | --- | --- | --- |
| CC(C)(C)NC(=O)Nc1ccc([C@H]2OCC(=O)N(Cc3ccc(F)cc3)[C@@H]2CO)cc1 | inactive [at 44.1 µM] | – | – |
| Cc1ccc(C)c(N2CCN(C(=O)C3CCN(S(=O)(=O)c4ccc5[nH]c(=O)oc5c4)CC3)CC2)c1 | – | – | active: 5.62 µM |
| C=CCN1CC2(CCC1=O)CCN(C(=O)CC1CCCCN1C)CC2 (centres undefined) | – | inactive: 3.45% | – |
| CCc1cccc(CC)c1N(COC)C(=O)Cn1c(CC)nc2ccccc21 | – | – | inconclusive: 11.2 µM [inhibitor, single point] |
| CCCNC(=O)OC[C@H]1C[C@@H]2CCN1C[C@@H]2c1cc(-c2ccccc2)nn1C | inactive [at 44.1 µM] | – | – |
| CC(C)NC(=O)c1nc(-c2ccc(F)cc2)c2ccccn12 | – | – | inconclusive: 11.2 µM [inhibitor, partial curve] |
| CC1=C[C@@H](CN2CCN(C)CC2)[C@H](C(C)C)C[C@H]1Cc1nnc(-c2ccc(N(C)C)cc2)o1 | – | – | active: 3.98 µM |
| FC(F)(F)c1ccc(-c2noc([C@@H]3Cc4nc[nH]c4CN3CC3CCCCC3)n2)cc1 | – | – | inconclusive: 5.62 µM [inhibitor, single point] |
| CCC(=O)N1CCc2cc(Br)cc(S(=O)(=O)CCC(=O)N(C)c3cccc(C)c3)c21 | – | – | inconclusive: 10 µM [inhibitor, single point] |
| Cc1nc(-c2cccc(Cl)c2)n(CC(=O)NC(C)CCc2ccccc2)c(=O)c1CCO (centres undefined) | – | – | inconclusive: 17.8 µM [inhibitor, single point] |
| O=C(Cc1ccccc1F)N1CCC2(CC1)CC(OCC1CC1)CCO2 (centres undefined) | – | inactive: 34.6% | – |
| Cc1noc(C)c1-c1cc2c(cc(-c3ccccc3)n2C)c(N(C)C)n1 | – | – | inconclusive: 5.62 µM [inhibitor, single point] |
| COc1ccc(NC(=O)Cn2nc(SC)c(S(=O)(=O)c3ccc(C)cc3)c2N)cc1OC | – | – | inconclusive: 17.8 µM [inhibitor, partial curve, poor fit] |
| O=C(CN1C(=O)NC(c2ccccc2Cl)C2=C1COC2=O)NCc1ccc(F)cc1 (centres undefined) | – | inactive: -14.7% | – |
| Cc1ccc(-n2ncc(C(=O)N3CCN(C4CCCCC4)CC3)c2C2CCN(C(=O)OC(C)(C)C)CC2)cc1C | – | – | inconclusive: 3.55 µM [inhibitor, single point] |
| Cc1ccc(Cn2cc(-c3ccncc3)cc2C(=O)NC2CC2)cc1 | – | – | inconclusive: 3.98 µM [inhibitor, single point] |
| CN1CCC(Cn2ccc3c(N4CCOCC4)nc(-c4cccc5[nH]ncc45)cc32)CC1 | – | – | inconclusive: 2 µM [inhibitor, partial curve, poor fit] |
| O=C1c2c(nc(COc3ccccc3)n2Cc2ccccc2)NCCN1Cc1ccccc1F | – | – | inconclusive: 17.8 µM [inhibitor, single point] |
| Cc1ccccc1OCCCn1c(CCNC(=O)C2CCCCC2)nc2ccccc21 | – | – | inconclusive: 12.6 µM [inhibitor, partial curve, poor fit] |
| CCCOc1ccc(CNC(=O)CN2CC3CC(C2)[C@H]2CCCC(=O)N2C3)cc1 (some centres undefined) | – | inactive: -24.4% | – |
| CN(Cc1ccc(Oc2ncccn2)cc1)CC1CCN(CCc2ccc(F)cc2)CC1 | – | – | inconclusive: 5.01 µM [inhibitor, partial curve, poor fit] |
| Cc1ccccc1NC(=O)COc1ccc(-c2nnc3n2CCCC3)cc1 | – | – | active: 11.2 µM |
